# Measured values taken from the supplement of paper PMC8728848.
# The list shows a part of the results.
# B1: DC-ASGPR L+GEE (Homo sapiens) (protein)
# chain: MTRTYENFQYLENKVKVQGFKNGPLPLQSLLQRLRSGPCHLLLSLGLGLLLLVIICVVGFQNSKFQRDLVTLRTDFSNFTSNTVAEIQALTSQGSSLEETIASLKAEVEGFKQERQAGVSELQEHTTQKAHLGHCPHCPSVCVPVHSEMLLRVQQLVQDLKKLTCQVATLNNNGEEASTEGTCCPVNWVEHQDSCYWFSHSGMSWAEAEKYCQLKNAHLVVINSREEQNFVQKYLGSAYTWMGLSDPEGAWKWVDGTDYATGFQNWKPGQPDDWQGHGLGGGEDCAHFHPDGRWNDDVCQRPYHWVCEAGLGQTSQESH
# How the values were obtained:
# Assay in all cases: glycan array binding signal (z-score within array); higher = stronger binding
# Conditions in all cases: glycan notation: IUPAC condensed, linker removed
# [1] = molecular target: Gal(b1-4)GlcNAc(b1-3)Gal(b1-3)GlcNAc
# In short: (§1)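 Glycan array binding is given as a within-array Z-score, which can be read as non-binding when negative. The arrays, 3228 of them, came from the Consortium for Functional Glycomics database and were retained only where the protein sequence was available. Z-scores were averaged across arrays of the same protein sequence at different concentrations or buffers and across linkers.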
# [2] = molecular target: Gal(b1-4)GlcNAc(b1-3)Gal(b1-4)Glc
# In short: as §1
# [3] = molecular target: Gal(b1-4)GlcNAc(b1-3)Gal(b1-4)GlcNAc
# In short: as §1
# [4] = molecular target: Gal(b1-4)GlcNAc(b1-3)Gal(b1-4)GlcNAc(b1-2)Man(a1-3)[Gal(b1-4)GlcNAc(b1-3)Gal(b1-4)GlcNAc(b1-2)Man(a1-6)]Man(b1-4)GlcNAc(b1-4)GlcNAc
# In short: as §1
# [5] = molecular target: Gal(b1-4)GlcNAc(b1-3)Gal(b1-4)GlcNAc(b1-2)Man(a1-3)[Gal(b1-4)GlcNAc(b1-3)Gal(b1-4)GlcNAc(b1-2)Man(a1-6)]Man(b1-4)GlcNAc(b1-4)[Fuc(a1-6)]GlcNAc
# In short: as §1
# [6] = molecular target: Gal(b1-4)GlcNAc(b1-3)Gal(b1-4)GlcNAc(b1-2)[Gal(b1-4)GlcNAc(b1-3)Gal(b1-4)GlcNAc(b1-6)]Man(a1-6)[Gal(b1-4)GlcNAc(b1-3)Gal(b1-4)GlcNAc(b1-2)Man(a1-3)]Man(b1-4)GlcNAc(b1-4)GlcNAc
# In short: as §1
# [7] = molecular target: Gal(b1-4)GlcNAc(b1-3)Gal(b1-4)GlcNAc(b1-2)[Gal(b1-4)GlcNAc(b1-3)Gal(b1-4)GlcNAc(b1-6)]Man(a1-6)[Gal(b1-4)GlcNAc(b1-3)Gal(b1-4)GlcNAc(b1-2)Man(a1-3)]Man(b1-4)GlcNAc(b1-4)[Fuc(a1-6)]GlcNAc
# In short: as §1
# [8] = molecular target: Gal(b1-4)GlcNAc(b1-3)Gal(b1-4)GlcNAc(b1-3)Gal(b1-4)GlcNAc
# In short: as §1
# [9] = molecular target: Gal(b1-4)GlcNAc(b1-3)Gal(b1-4)GlcNAc(b1-3)Gal(b1-4)GlcNAc(b1-2)Man(a1-3)[Gal(b1-4)GlcNAc(b1-3)Gal(b1-4)GlcNAc(b1-3)Gal(b1-4)GlcNAc(b1-2)Man(a1-6)]Man(b1-4)GlcNAc(b1-4)GlcNAc
# In short: as §1
# [10] = molecular target: Gal(b1-4)GlcNAc(b1-3)Gal(b1-4)GlcNAc(b1-3)Gal(b1-4)GlcNAc(b1-2)Man(a1-3)[Gal(b1-4)GlcNAc(b1-3)Gal(b1-4)GlcNAc(b1-3)Gal(b1-4)GlcNAc(b1-2)Man(a1-6)]Man(b1-4)GlcNAc(b1-4)[Fuc(a1-6)]GlcNAc
# In short: as §1
# [11] = molecular target: Gal(b1-4)GlcNAc(b1-3)Gal(b1-4)GlcNAc(b1-3)Gal(b1-4)GlcNAc(b1-2)[Gal(b1-4)GlcNAc(b1-3)Gal(b1-4)GlcNAc(b1-3)Gal(b1-4)GlcNAc(b1-6)]Man(a1-6)[Gal(b1-4)GlcNAc(b1-3)Gal(b1-4)GlcNAc(b1-3)Gal(b1-4)GlcNAc(b1-2)Man(a1-3)]Man(b1-4)GlcNAc(b1-4)[Fuc(a1-6)]GlcNAc
# In short: as §1
# [12] = molecular target: Gal(b1-4)GlcNAc(b1-3)Gal(b1-4)GlcNAc(b1-3)Gal(b1-4)GlcNAc(b1-3)Gal(b1-4)GlcNAc(b1-2)Man(a1-3)[Gal(b1-4)GlcNAc(b1-3)Gal(b1-4)GlcNAc(b1-3)Gal(b1-4)GlcNAc(b1-3)Gal(b1-4)GlcNAc(b1-2)Man(a1-6)]Man(b1-4)GlcNAc(b1-4)GlcNAc
# In short: as §1
# [13] = molecular target: Gal(b1-4)GlcNAc(b1-3)Gal(b1-4)GlcNAc(b1-3)Gal(b1-4)GlcNAc(b1-3)Gal(b1-4)GlcNAc(b1-2)Man(a1-3)[Gal(b1-4)GlcNAc(b1-3)Gal(b1-4)GlcNAc(b1-3)Gal(b1-4)GlcNAc(b1-3)Gal(b1-4)GlcNAc(b1-2)Man(a1-6)]Man(b1-4)GlcNAc(b1-4)[Fuc(a1-6)]GlcNAc
# In short: as §1
# [14] = molecular target: Gal(b1-4)GlcNAc(b1-3)Gal(b1-4)GlcNAc(b1-3)Gal(b1-4)GlcNAc(b1-3)Gal(b1-4)GlcNAc(b1-2)[Gal(b1-4)GlcNAc(b1-3)Gal(b1-4)GlcNAc(b1-3)Gal(b1-4)GlcNAc(b1-3)Gal(b1-4)GlcNAc(b1-6)]Man(a1-6)[Gal(b1-4)GlcNAc(b1-3)Gal(b1-4)GlcNAc(b1-3)Gal(b1-4)GlcNAc(b1-3)Gal(b1-4)GlcNAc(b1-2)Man(a1-3)]Man(b1-4)GlcNAc(b1-4)[Fuc(a1-6)]GlcNAc
# In short: as §1
# [15] = molecular target: Gal(b1-4)GlcNAc(b1-3)Gal(b1-4)GlcNAc(b1-3)Gal(b1-4)GlcNAc(b1-3)Gal(b1-4)GlcNAc(b1-3)Gal(b1-4)GlcNAc(b1-2)Man(a1-3)[Gal(b1-4)GlcNAc(b1-3)Gal(b1-4)GlcNAc(b1-3)Gal(b1-4)GlcNAc(b1-3)Gal(b1-4)GlcNAc(b1-3)Gal(b1-4)GlcNAc(b1-2)Man(a1-6)]Man(b1-4)GlcNAc(b1-4)GlcNAc
# In short: as §1
# [16] = molecular target: Gal(b1-4)GlcNAc(b1-3)Gal(b1-4)GlcNAc(b1-3)Gal(b1-4)GlcNAc(b1-3)Gal(b1-4)GlcNAc(b1-3)Gal(b1-4)GlcNAc(b1-2)Man(a1-3)[Gal(b1-4)GlcNAc(b1-3)Gal(b1-4)GlcNAc(b1-3)Gal(b1-4)GlcNAc(b1-3)Gal(b1-4)GlcNAc(b1-3)Gal(b1-4)GlcNAc(b1-2)Man(a1-6)]Man(b1-4)GlcNAc(b1-4)[Fuc(a1-6)]GlcNAc
# In short: as §1
# [17] = molecular target: Gal(b1-4)GlcNAc(b1-3)Gal(b1-4)GlcNAc(b1-3)Gal(b1-4)GlcNAc(b1-3)Gal(b1-4)GlcNAc(b1-3)Gal(b1-4)GlcNAc(b1-2)[Gal(b1-4)GlcNAc(b1-3)Gal(b1-4)GlcNAc(b1-3)Gal(b1-4)GlcNAc(b1-3)Gal(b1-4)GlcNAc(b1-3)Gal(b1-4)GlcNAc(b1-6)]Man(a1-6)[Gal(b1-4)GlcNAc(b1-3)Gal(b1-4)GlcNAc(b1-3)Gal(b1-4)GlcNAc(b1-3)Gal(b1-4)GlcNAc(b1-3)Gal(b1-4)GlcNAc(b1-2)Man(a1-3)]Man(b1-4)GlcNAc(b1-4)[Fuc(a1-6)]GlcNAc
# In short: as §1
# [18] = molecular target: Gal(b1-4)GlcNAc(b1-3)Gal(b1-4)GlcNAc(b1-3)Gal(b1-4)GlcNAc(b1-3)Gal(b1-4)GlcNAc(b1-3)Gal(b1-4)GlcNAc(b1-3)Gal(b1-4)GlcNAc(b1-2)Man(a1-3)[Gal(b1-4)GlcNAc(b1-3)Gal(b1-4)GlcNAc(b1-3)Gal(b1-4)GlcNAc(b1-3)Gal(b1-4)GlcNAc(b1-3)Gal(b1-4)GlcNAc(b1-3)Gal(b1-4)GlcNAc(b1-2)Man(a1-6)]Man(b1-4)GlcNAc(b1-4)GlcNAc
# In short: as §1
# [19] = molecular target: Gal(b1-4)GlcNAc(b1-3)Gal(b1-4)GlcNAc(b1-3)GalNAc
# In short: as §1
binder,measurement,setting,value
B1,glycan array binding signal (z-score),[1],-0.085
same,glycan array binding signal (z-score),[2],-0.147
same,glycan array binding signal (z-score),[3],0.001
same,glycan array binding signal (z-score),[4],0.828
same,glycan array binding signal (z-score),[5],-0.215
same,glycan array binding signal (z-score),[6],0.604
same,glycan array binding signal (z-score),[7],-0.323
same,glycan array binding signal (z-score),[8],-0.221
same,glycan array binding signal (z-score),[9],-0.068
same,glycan array binding signal (z-score),[10],0.102
same,glycan array binding signal (z-score),[11],0.024
same,glycan array binding signal (z-score),[12],-0.356
same,glycan array binding signal (z-score),[13],-0.256
same,glycan array binding signal (z-score),[14],2.52
same,glycan array binding signal (z-score),[15],0.526
same,glycan array binding signal (z-score),[16],-0.111
same,glycan array binding signal (z-score),[17],1.34
same,glycan array binding signal (z-score),[18],0.991
same,glycan array binding signal (z-score),[19],0.133
